A lower IC50 marks a more sensitive line; fits outside the tested doses are given as limits. AUC, from the same fit, is the share of area under the viability curve across the 256-fold dose range: 1 means no effect, lower means more sensitive. For some of these results: Any top dose called inferred comes from the curve model; the source does not state it.
Legend:
Experiment in all cases: Viability of human cancer cell lines after 72 h of drug (GDSC screen)
[1] = compound: CN(C)CCOc1ccc(-c2nc(-c3ccncc3)c(-c3ccc4c(c3)CC/C4=N\O)[nH]2)cc1 [SB590885]; conditions: top dose 5 µM; top dose inferred
Protocol: (§1)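 Human cancer cell lines in 384-well plates, medium with 10% serum, drug for 72 h over a 256-fold dose range (nine 2-fold or five 4-fold steps up to the top dose). Adherent lines were fixed and stained with the nucleic acid dye Syto60, suspension lines read with resazurin; signal relative to control wells, capped at 0 and 100%. One two-parameter sigmoid per drug and line, fitted in a mixed model over all curves with the slope shared within a line.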

[2] = compound: CS(=O)(=O)CCNCc1ccc(-c2ccc3ncnc(Nc4ccc(OCc5cccc(F)c5)c(Cl)c4)c3c2)o1 [Lapatinib]; conditions: top dose 2 µM
Protocol: as §1

[3] = compound: CCN(CC)CCCCNc1ncc2cc(-c3cc(OC)cc(OC)c3)c(NC(=O)NC(C)(C)C)nc2n1 [PD-173074]; conditions: top dose 2 µM; top dose inferred
Protocol: as §1

[4] = compound: Cc1cc(C(C)Nc2ccccc2)c2nc(N3CCOCC3)cc(=O)n2c1 [TGX221]; conditions: top dose 10 µM
Protocol: as §1

| Cell Line | AUC [1] | IC50 [1] [µM] | AUC [2] | IC50 [2] [nM] | AUC [3] | IC50 [3] [nM] | AUC [4] | IC50 [4] [µM] |
| --- | --- | --- | --- | --- | --- | --- | --- | --- |
| 8-MG-BA (glioma, adherent) | 0.979 | > 5 | 0.982 | > 2000 | 0.983 | > 2000 | 0.983 | > 10 |
| 697 (lymphoblastic leukaemia, suspension) | 0.969 | > 5 | 0.989 | > 2000 | 0.88 | 1380 | 0.882 | 6.99 |
| A498 (kidney, adherent) | 0.978 | > 5 | – | – | 0.977 | > 2000 | 0.472 | 0.503 |
| BB65-RCC (kidney, adherent) | – | – | 0.937 | > 2000 | – | – | 0.916 | > 10 |
| BC-3 (B-cell lymphoma, suspension) | – | – | 0.981 | > 2000 | – | – | 0.939 | > 10 |
| BT-474 (breast, adherent) | 0.986 | > 5 | – | – | 0.985 | > 2000 | 0.985 | > 10 |
| CAL-148 (breast, suspension) | – | – | – | – | – | – | 0.982 | > 10 |
| COLO-829 (melanoma, adherent) | – | – | 0.975 | > 2000 | – | – | 0.821 | 9.91 |
| Calu-6 (lung adenocarcinoma, adherent) | 0.984 | > 5 | – | – | 0.984 | > 2000 | 0.953 | > 10 |
| D-336MG (glioma, adherent) | – | – | 0.922 | > 2000 | 0.908 | > 2000 | – | – |
| DU-4475 (breast, suspension) | 0.622 | 0.633 | – | – | 0.992 | > 2000 | 0.988 | > 10 |
| ECC12 (stomach, suspension) | – | – | 0.478 | 107 | – | – | 0.974 | > 10 |
| EHEB (lymphoid neoplasm, suspension) | 0.966 | > 5 | 0.968 | > 2000 | 0.95 | > 2000 | – | – |
| EVSA-T (breast, adherent) | 0.984 | > 5 | – | – | 0.991 | > 2000 | 0.846 | 5.77 |
| EW-12 (Ewing sarcoma, suspension) | – | – | 0.973 | > 2000 | – | – | 0.905 | > 10 |
| EW-22 (Ewing sarcoma, adherent) | 0.988 | > 5 | – | – | 0.987 | > 2000 | 0.988 | > 10 |
| GAK (melanoma, adherent) | 0.989 | > 5 | – | – | 0.979 | > 2000 | 0.897 | > 10 |
| HCC1187 (breast, suspension) | 0.978 | > 5 | – | – | 0.972 | > 2000 | 0.953 | > 10 |
| HCC1500 (breast, adherent) | 0.978 | > 5 | – | – | 0.979 | > 2000 | 0.976 | > 10 |

| Cell Line | AUC [1] | IC50 [1] [µM] | AUC [2] | IC50 [2] [nM] | AUC [3] | IC50 [3] [nM] | AUC [4] | IC50 [4] [µM] |
| --- | --- | --- | --- | --- | --- | --- | --- | --- |
| HCC1599 (breast, suspension) | – | – | 0.975 | > 2000 | – | – | 0.782 | 4.82 |
| HCC2218 (breast, suspension) | 0.976 | > 5 | – | – | 0.975 | > 2000 | 0.975 | > 10 |
| HCC2998 (large intestine, adherent) | – | – | 0.948 | > 2000 | – | – | 0.97 | > 10 |
| HCC-33 (small cell lung carcinoma, adherent) | – | – | 0.986 | > 2000 | – | – | 0.987 | > 10 |
| HEL (acute myeloid leukaemia, semi-adherent) | – | – | 0.992 | > 2000 | – | – | 0.99 | > 10 |
| Hs-445 (Hodgkin lymphoma, suspension) | – | – | 0.988 | > 2000 | – | – | 0.972 | > 10 |
| IST-MES1 (mesothelioma, adherent) | – | – | 0.936 | > 2000 | – | – | 0.967 | > 10 |
| JSC-1 (B-cell lymphoma, suspension) | 0.986 | > 5 | 0.987 | > 2000 | 0.981 | > 2000 | – | – |
| K5 (thyroid, adherent) | – | – | 0.983 | > 2000 | 0.962 | > 2000 | 0.972 | > 10 |
| KALS-1 (glioma, adherent) | – | – | 0.972 | > 2000 | – | – | 0.771 | 5.33 |
| KASUMI-1 (acute myeloid leukaemia, suspension) | – | – | 0.961 | > 2000 | – | – | 0.98 | > 10 |
| KMS-12-BM (myeloma, suspension) | – | – | – | – | – | – | 0.988 | > 10 |
| KP-N-YS (neuroblastoma, adherent) | – | – | 0.953 | > 2000 | – | – | 0.981 | > 10 |
| LB2241-RCC (kidney, adherent) | – | – | 0.755 | 755 | – | – | 0.924 | > 10 |
| LS-123 (large intestine, adherent) | – | – | 0.91 | > 2000 | – | – | 0.936 | > 10 |
| LS-411N (large intestine, adherent) | 0.897 | > 5 | – | – | 0.982 | > 2000 | 0.843 | 9.52 |
| LS-513 (large intestine, adherent) | 0.987 | > 5 | – | – | 0.987 | > 2000 | 0.987 | > 10 |
| MFM-223 (breast, adherent) | 0.989 | > 5 | – | – | 0.631 | 287 | 0.989 | > 10 |
| MMAC-SF (melanoma, adherent) | – | – | 0.976 | > 2000 | 0.937 | > 2000 | 0.908 | > 10 |
